Data taken from PubChem BioAssay AID1345083 (National Center for Advancing Translational Sciences (NCATS), 2018).
Screen size: about 94,000 compounds; about 6,200 (6.6%) were called active. The inconclusive results got no clear call from the source; some entries with a clear call stand among them for comparison. The call rests on the fitted dose curve; in most records, active means well fitted inhibition curve with a large enough effect; inconclusive means small, poorly fitted or top-dose-only effect; inactive means flat fitted curve, though single readings scatter. Where the call is inconclusive, the potency comes from a doubtful curve fit.

Experiment: Cytotoxic Profiling in HEK 293 Cell Line of Diverse Libraries Using Quantitative High-Throughput Screening; further: nearly all actives have a fitted effect of over 60% in size
Details: HEK 293 viability, ATP luminescence (CellTiter-Glo), 48-72 h; series mostly up to 115 µM
In short: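 Pintool-delivered compounds were incubated with HEK 293 cells (250 cells/well) at 37 degree Celsius for 48 or 72 hr. ATP-dependent luminescence (CellTiter-Glo) then reported remaining viable cells.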
Potency means the concentration at half of the fitted maximal effect; tags describe the fitted curve by direction and shape.

SMILES	Potency
COc1cccc(OC)c1CN1C[C@@H](CO)[C@H](c2nc(C)no2)C1	inconclusive: 15.8 µM [inhibitor, partial curve, poor fit]
COCCNc1c(-c2noc(C)c2C(=O)Nc2ccc(Cl)cc2)cnn1C	inconclusive: 5.62 µM [inhibitor, full curve, poor fit]
Clc1cccc(CN2CC[C@H](c3nc4ccccc4o3)C2)c1	inconclusive: 100 µM [inhibitor, partial curve]
COc1ccccc1-c1[nH]nc2ncc(CNc3ccccn3)nc12	inconclusive: 112 µM [inhibitor, partial curve, poor fit]
O=C(c1ccccn1)N1CCc2nc(C3CC3)nc(-c3ccc(Cl)cc3)c2C1	inactive
C=CCCC(=O)N1CCOc2c(O)cc(-c3nc4ccccc4s3)cc2C1	active: 50.1 µM
COc1cc(OC)cc(C(=O)NC2CCCN(c3cc(-c4ccccc4)[nH]n3)C2)c1 (stereo not drawn)	active: 39.8 µM
COc1ccccc1Nc1ccnc(N2CCC(C(=O)N3CCC(c4ccccc4)CC3)CC2)n1	inconclusive: 79.4 µM [inhibitor, partial curve, poor fit]
O=C(NCCc1ccc(Cl)cc1)c1nc(-c2cccc(C(F)(F)F)c2)c2cnccn12	inconclusive: 50.1 µM [inhibitor, partial curve, poor fit]
Cc1noc(C)c1-c1cc2c(cc(C)n2C)c(NCCN(C)C)n1	inconclusive: 112 µM [inhibitor, partial curve, poor fit]
COc1cccc(C(=O)N2CCC(N3C[C@H](O)C[C@H]3C(=O)N3CCc4ccccc4C3)CC2)c1	inconclusive: 100 µM [inhibitor, partial curve, poor fit]
O=S(=O)(Cc1ccccc1)N1CC(c2nnc(-c3ccncc3)o2)C2(CCOCC2)C1 (stereo not drawn)	inactive
COC(=O)[C@@H]1Cc2c([nH]c3ccccc23)[C@H]2C[C@@H](N3CCOCC3)C[C@@H](c3ccc(F)cc3)N21	inconclusive: 50.1 µM [inhibitor, partial curve, poor fit]
CCNC(=O)N1CC(C(=O)N2CCCC(C(=O)OCC)C2)CC(c2ccc(F)c(C)c2)C1 (stereo not drawn)	inactive
Cc1cn2nc(C(=O)NCc3ccccn3)cc2c(N2CCCC2)n1	inactive
CC(C)(Oc1nn(Cc2cccc(Cl)c2)c2ccccc12)C(=O)NC1CCC(O)CC1 (stereo not drawn)	inconclusive: 50.1 µM [inhibitor, partial curve, poor fit]
COCC(=O)N1CCCC(C(=O)N2CCC(N3CCOCC3=O)CC2)C1 (stereo not drawn)	inactive
COc1c(F)cc(CN2CCCC3(CCNC3)C2)cc1F (stereo not drawn)	inconclusive: 89.1 µM [inhibitor, partial curve, poor fit]
O=C(NCCn1cccc1-c1nc(-c2ccc3c(c2)OCO3)no1)c1ccc(Cl)s1	inconclusive: 31.6 µM [inhibitor, full curve]
COc1ccccc1C(=O)N1CCC(Cc2nncn2-c2ccccc2)CC1	inactive
CN1C[C@@H](NC(=O)COc2ccccc2)C[C@H]1c1nc(-c2ccc(Cl)cc2)no1	inconclusive: 56.2 µM [inhibitor, partial curve, poor fit]
COc1ccc(-c2cc(C(=O)NCc3c(C)cc(C)[nH]c3=O)c3c(c2)N(C)CCO3)cc1	inactive

SMILES	Potency
CC(=O)Nc1ccc(CN[C@@H]2CO[C@H](CNC(=O)NC(C)C)[C@H]2O)cc1	inactive
O=C(NC1CCOCC1)[C@@H]1CCCN1c1ccnc2ccnn12	inactive
O=C1Nc2ccccc2C12CCN(Cc1ccc(C(F)(F)F)cc1)C2 (stereo not drawn)	inconclusive: 50.1 µM [inhibitor, partial curve, poor fit]
CCC1(N2CCN(C(=O)CCc3c[nH]c4ccccc34)CC2)CCN(C(=O)NC)C1 (stereo not drawn)	inactive
O=C(NCc1cccc(Cl)c1)c1ccc2nnc(-c3cc[nH]c3)n2c1	inconclusive: 56.2 µM [inhibitor, partial curve, poor fit]
CC(C)c1noc(-c2cn(C3CCN(C(=O)c4ccc(N(C)C)cc4)C3)nn2)n1 (stereo not drawn)	active: 31.6 µM
CCc1ccc(CNC(=O)c2cc3cn(C4CCCC4)cc3s2)cc1	inconclusive: 35.5 µM [inhibitor, partial curve, poor fit]
O=C(NC1CCCCC1)C1CN(S(=O)(=O)c2ccccc2Cl)CC12CCOCC2 (stereo not drawn)	inactive
CCC1Oc2ccc(NC(=O)COc3ccccc3)cc2CN(C(CC)c2ccccc2)C1=O (stereo not drawn)	inconclusive: 35.5 µM [inhibitor, full curve, poor fit]
CCCN1CCc2[nH]cnc2C12CCN(C(=O)c1ccc(CC)s1)CC2	inactive
Cc1cc(CN(C)c2ccc(-c3nc(COc4ccccc4)no3)cn2)on1	inconclusive: 22.4 µM [inhibitor, full curve, poor fit]
O=C(NCCn1cccc1-c1nc(-c2ccc3c(c2)OCO3)no1)c1cccc(F)c1	inactive
Cc1cc(C(F)(F)F)nc(CCNC(=O)c2ccc3ncccc3c2)n1	inactive
COc1cccc(NC(=O)N[C@H]2CCN(C(=O)C=C(C)C)[C@@H]2C(=O)N(C)CC(N)=O)c1	inactive
CCn1cc(CN(C)C(=O)CN2C(=O)C3(CCCCC3)C2c2ccccc2)c(C)n1 (stereo not drawn)	inactive
CN1c2cc(C(=O)Nc3ccc4c(c3)OCCO4)ccc2C(=O)N2CCCCC21 (stereo not drawn)	inconclusive: 89.1 µM [inhibitor, single point]
COc1ccccc1-n1c(=O)c(C(=O)N2CCN([S+](=O)([O-])c3cccc(C(F)(F)F)c3)CC2)nc2cccnc21	inactive
CN1C(=O)CO[C@H](c2ccc(NC(=O)Nc3ccc(F)cc3)cc2)[C@H]1CO	inconclusive: 126 µM [inhibitor, single point]
C[S+](=O)([O-])NC1CCN(c2ccnc3ccnn23)CC1	inactive
COc1ccc(CC(=O)NC2CCCc3c2[nH]c2ccc(F)cc32)cc1OC (stereo not drawn)	inconclusive: 35.5 µM [inhibitor, full curve, poor fit]
O=C(c1ccoc1)N1CCC(c2noc(-c3ccncc3)n2)C1 (stereo not drawn)	inactive
